Reference: publication PMC7819943, “Rice protein-binding microarrays: a tool to detect cis-acting elements near promoter regions in rice”
Some of the results follow.

Target: T1, OsWOX13 (Oryza sativa, UniProt Q5QMM3 1-267)
T1 sequence: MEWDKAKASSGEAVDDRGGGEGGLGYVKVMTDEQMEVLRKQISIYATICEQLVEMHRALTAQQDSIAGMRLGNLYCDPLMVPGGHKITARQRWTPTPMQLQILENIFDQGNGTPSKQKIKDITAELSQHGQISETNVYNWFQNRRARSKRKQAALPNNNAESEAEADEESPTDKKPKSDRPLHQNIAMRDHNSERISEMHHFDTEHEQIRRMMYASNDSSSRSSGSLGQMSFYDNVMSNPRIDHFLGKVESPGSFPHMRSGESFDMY
Experiment: protein-binding microarray (RPBM); PBS, 2% BSA, 51.3 ng/ul salmon testes DNA, 50 uM zinc acetate, 200 nM TF, 25 C, 1 h; high values mean tight binding
Conditions: protein: recombinant; tags: N-terminal polyhistidine and DsRed monomer fusion (pET32a); label: CyDye5-dUTP incorporated in the synthesized complementary strand; 3' TTTTT single-stranded linker to array surface; dsDNA, one strand shown
Outline: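 Transcription factors were each fused at the N-terminus to a polyhistidine tag plus DsRed and expressed in E. coli BL21-CodonPlus before Ni–NTA purification. Binding to a double-stranded custom Agilent array was carried out with 200 nM protein at 25 °C for 1 h in PBS, 2% BSA, salmon testes DNA and 50 µM zinc acetate. The binding signal is per-feature fluorescence intensity, in arbitrary units, on an Axon 4000B scanner.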

Compared with “TCTGCTTAAAAGGATGATTAAATTTTAGATTAAAGTGGCGCGGAGTCACCTAGTGCAG”, “CACGAAATTAATTTAGCTCTACATCCGTTCTGTTTATGAACGGAGTCACCTAGTGCAG” is lower in binding signal: 10200 fluorescence intensity (a.u.) for the first, 8960 fluorescence intensity (a.u.) for the second.

Going from “ACCCTTTGATTACGCTATCATTACTGACAATGACATGTGGCGGAGTCACCTAGTGCAG” to “ACGACTAATTATTATCTCAATGGAGAATGATGTATATGTTCGGAGTCACCTAGTGCAG”, the binding signal falls from 31600 fluorescence intensity (a.u.) to 27800 fluorescence intensity (a.u.).

First: GTTCAGGAATTGATGCGGAATGAAGATTATGTGCTCCTGCCGGAGTCACCTAGTGCAG
Second: TTTGATAGAACTGGTGTCATGTGCAATTCTCCTTTTCTCCCGGAGTCACCTAGTGCAG
The binding signal of the first is lower: 3620 fluorescence intensity (a.u.) for the first, 11200 fluorescence intensity (a.u.) for the second.

First: TACAAATTTGAATCTGATTGAAATTCGCCAAATTGAAACCCGGAGTCACCTAGTGCAG
Second: TCCGTACTCGTAATGACAATATTTAATTTAAACCTTCGGACGGAGTCACCTAGTGCAG
The binding signal of the first is higher: 45800 fluorescence intensity (a.u.) for the first, 3170 fluorescence intensity (a.u.) for the second.

Compared with “AGGTGTTTAATTGGGTTTCTGGGTCCAAAACTCCATAAGTCGGAGTCACCTAGTGCAG”, “TCACATGCATAATTAGAATAATTGAAAGGCCACAGATGGCCGGAGTCACCTAGTGCAG” is higher in binding signal: 8570 fluorescence intensity (a.u.) for the first, 27000 fluorescence intensity (a.u.) for the second.

First: AATATCTAATTAGCTTTGAGGGCACTTAGCTCTGCAGTTCCGGAGTCACCTAGTGCAG
Second: TTCACATTATTTCAATTTCAATCAAACTTTCGATTTTAGCCGGAGTCACCTAGTGCAG
The binding signal of the first is higher: 12100 fluorescence intensity (a.u.) for the first, 9030 fluorescence intensity (a.u.) for the second.

First: TTAGTTTATACTCAATTAATCATTCGCTAATGGCTTACCTCGGAGTCACCTAGTGCAG
Second: GTTTGACTTGTTACTGTATAAATTGTAGAATTTCGTCGCACGGAGTCACCTAGTGCAG
The binding signal of the first is higher: 5920 fluorescence intensity (a.u.) for the first, 4340 fluorescence intensity (a.u.) for the second.

Compared with “GTAAAATAATTGGAAGAGCCAGAGTTAGTTGTGCACATGCCGGAGTCACCTAGTGCAG”, “GAGAGGAGGGATTGATTTTCTTTCTCCTCCTCTTCTTGTTCGGAGTCACCTAGTGCAG” is lower in binding signal: 21800 fluorescence intensity (a.u.) for the first, 4490 fluorescence intensity (a.u.) for the second.

Going from “TAGTTAATCTACGGGACGTGACTGGCTGCTGCCTGGCAGACGGAGTCACCTAGTGCAG” to “TTAAATTAAAACTGAAATTACAGTCCTTCTTAACCTTCTCCGGAGTCACCTAGTGCAG”, the binding signal rises from 6620 fluorescence intensity (a.u.) to 11600 fluorescence intensity (a.u.).

Compared with “AACCCCATAATCTGAAAATAGATAGAATATATGGCTCTGACGGAGTCACCTAGTGCAG”, “ATCTATCTATCTATCTATCTATCTATCTATCTATCTATCTCGGAGTCACCTAGTGCAG” is higher in binding signal: 3570 fluorescence intensity (a.u.) for the first, 20600 fluorescence intensity (a.u.) for the second.

Compared with “CCATTATCCATTTCATCTAATTATTTGGACTGCAGTTGCACGGAGTCACCTAGTGCAG”, “AAATCCTCAATTAATTCTAAAATTAAGTTATTCCAATTCACGGAGTCACCTAGTGCAG” is higher in binding signal: 5320 fluorescence intensity (a.u.) for the first, 8850 fluorescence intensity (a.u.) for the second.

Compared with “TATTTAATTTTGTCAAAGACCACACAATATTTTACAACAACGGAGTCACCTAGTGCAG”, “TTTGGAAATTATCTATGAATTTACCTAGTTTCATCGTCCACGGAGTCACCTAGTGCAG” is lower in binding signal: 6810 fluorescence intensity (a.u.) for the first, 4970 fluorescence intensity (a.u.) for the second.

Compared with “CCTAACCACCCTCTGATTAACACTCACCTAGTGCCTAATTCGGAGTCACCTAGTGCAG”, “GCATAATTAAGAACATATACTTTCCCAGCATGTTCTGTGACGGAGTCACCTAGTGCAG” is higher in binding signal: 6890 fluorescence intensity (a.u.) for the first, 14800 fluorescence intensity (a.u.) for the second.

Going from “TGGCATTTATCAATCACCATATTATAGTCCAGCACCAAAACGGAGTCACCTAGTGCAG” to “AATAGACTTAAATTGATAAATAATATTAGCTAAATTTGTACGGAGTCACCTAGTGCAG”, the binding signal rises from 4840 fluorescence intensity (a.u.) to 28900 fluorescence intensity (a.u.).

First: TCACAAATTGCATTACCAGTGGTAGCTCCGGTGCCTTCTTCGGAGTCACCTAGTGCAG
Second: GACCAATCAACGCAGCTCTCGTCTCCTCTGTTTATATAAACGGAGTCACCTAGTGCAG
The binding signal of the first is lower: 7610 fluorescence intensity (a.u.) for the first, 11200 fluorescence intensity (a.u.) for the second.

Compared with “AACTGCTGATTGTGATACACATGACCTGAACTCATTTTCTCGGAGTCACCTAGTGCAG”, “ATATATTTATTGATTAGAAACATCTATAGTCAGGGACCAACGGAGTCACCTAGTGCAG” is higher in binding signal: 11500 fluorescence intensity (a.u.) for the first, 21200 fluorescence intensity (a.u.) for the second.

Compared with “GAAATGAATTGATCAAGGGCACGGTGGACCCGGCCCACGCCGGAGTCACCTAGTGCAG”, “ATTGCTAATTATGTGCAAGAGTGATGCTTGGGTTGGATAGCGGAGTCACCTAGTGCAG” is higher in binding signal: 4980 fluorescence intensity (a.u.) for the first, 12400 fluorescence intensity (a.u.) for the second.

Going from “ATGTAGAATTTTCCTAATTTTGAGTGGAAATTATTGAGCTCGGAGTCACCTAGTGCAG” to “ATTAATTGTTAACCTTGTATGTTTTAAGGGTATTTTGGGTCGGAGTCACCTAGTGCAG”, the binding signal rises from 3640 fluorescence intensity (a.u.) to 28100 fluorescence intensity (a.u.).

Compared with “AAAAGCAATAATTAACTGTTGAAAGGCCAAAAGTCCATAACGGAGTCACCTAGTGCAG”, “TTGATTTCTAATCGAAATATGATATTTAATTTAAAGCCATCGGAGTCACCTAGTGCAG” is lower in binding signal: 13100 fluorescence intensity (a.u.) for the first, 5440 fluorescence intensity (a.u.) for the second.

First: GTTGGTGAGATTGAAATTAAAGGAGACAGAGATGTAGACACGGAGTCACCTAGTGCAG
Second: TTTCAATCTACGTATTAATAGAATCTATAGTATTCATATACGGAGTCACCTAGTGCAG
The binding signal of the first is higher: 18700 fluorescence intensity (a.u.) for the first, 9500 fluorescence intensity (a.u.) for the second.

Going from “TAATTAATTGAAAATAAAATTGTACTACACGAGATGGCCCCGGAGTCACCTAGTGCAG” to “ACCTCATATAATTGTAGTTCAACTGTGACTTAGGATTGTTCGGAGTCACCTAGTGCAG”, the binding signal falls from 47300 fluorescence intensity (a.u.) to 5370 fluorescence intensity (a.u.).

First: ATTAAAATTAGAATTTCATCCATTACCTTCTCATATTTGGCGGAGTCACCTAGTGCAG
Second: ACTGCTGCCGATTGACTGCTACGAGTAGCTCGCACCTGGCCGGAGTCACCTAGTGCAG
The binding signal of the first is lower: 5880 fluorescence intensity (a.u.) for the first, 7450 fluorescence intensity (a.u.) for the second.

First: TTGTTTGATTATAAACAGTGCCAACTGCTCTATTCCACTACGGAGTCACCTAGTGCAG
Second: ACTTGATTATAGTCCTCCTTTCGTCTCTATAGCGATTGATCGGAGTCACCTAGTGCAG
The binding signal of the first is lower: 11000 fluorescence intensity (a.u.) for the first, 38600 fluorescence intensity (a.u.) for the second.

Going from “GGTCCTAATTGACAAATCCACAGAAGTAGTACTCCAGGAGCGGAGTCACCTAGTGCAG” to “TTTGATTTAACATTATACACAGCTATAGTGCATATGAACACGGAGTCACCTAGTGCAG”, the binding signal falls from 53000 fluorescence intensity (a.u.) to 34200 fluorescence intensity (a.u.).

Going from “CACATAAGATTGGCTACATGGGCATCGAGAAATGTAAATACGGAGTCACCTAGTGCAG” to “CTTAATCTATTATTATATGATATGCATAAAATTAGTGACACGGAGTCACCTAGTGCAG”, the binding signal rises from 3510 fluorescence intensity (a.u.) to 9640 fluorescence intensity (a.u.).

Going from “TTATATGGGATTGATATGGAAAACCATAGAATACAAAGAGCGGAGTCACCTAGTGCAG” to “AACTAGATTATTTTATCTGCTATCACAAATATCCACAATTCGGAGTCACCTAGTGCAG”, the binding signal falls from 9760 fluorescence intensity (a.u.) to 4520 fluorescence intensity (a.u.).

First: GAAATGTGTTTTAAATTGAATATTTTGTTATTTGTTGACGCGGAGTCACCTAGTGCAG
Second: CAGTAAATTTAATCGTCACCGTACAATTATCGTATTTCGCCGGAGTCACCTAGTGCAG
The binding signal of the first is lower: 9420 fluorescence intensity (a.u.) for the first, 24900 fluorescence intensity (a.u.) for the second.
